Screen size: about 48,000 compounds; about 450 (0.94%) were called active. Not shown: some 19% with an inconclusive outcome. Calls follow the shape of the dose curve; as a rule, active = well fitted inhibition curve with a large enough effect; inconclusive = small, poorly fitted or top-dose-only effect; inactive = no such curve, though single readings can be large or run the other way. The list shows a part of the results.
Assay: Primary qHTS for Identification of Small Molecule Inhibitors of Huntingtin Promoter Activity; also: nearly all actives have a fitted effect of over 50% in size
Settings: HEK293 HTT promoter firefly luciferase reporter (activity 0% = vehicle and -100% = no light), 24 h; series mostly up to 57.5 µM; activity change, negative = inhibition: at the top concentration
In short: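 HEK293 Fluc reporter, 2,500 cells/well, 24 h pre-culture; cpds up to 57.5 uM final, 24 h 37 degrees C; Dual-Glo, 10 min RT; normalized vehicle = 0%, zero RLU = -100%.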

Activity change, negative = inhibition, inactive:
CCc1ccc(CNC(=O)CCSCc2ccccc2F)cc1 -26%
Cc1cccc(NS(=O)(=O)c2ccc3[nH]c(=O)ccc3c2)c1C -16.1%
COc1ccccc1OCCn1c(-c2ccc(Cl)cc2)nc2ccccc2c1=O -4.31%
COc1ccc(C(=O)c2cn(CC(=O)Nc3ccc4c(c3)OCCO4)c3ccc(OC)cc3c2=O)cc1 -19.8%
COc1cccc(C2=CC(c3ccc(OC)c(OC)c3OC)n3ncnc3N2)c1 (centres undefined) -7.19% [at 11.5 µM]
CCN(C(=O)Cc1nc(-c2ccc(OC)cc2)no1)c1cccc(Cl)c1 -18.5%
O=C(Cn1c(=O)nc(-c2ccccc2)c2ccccc21)Nc1ccc(Cl)c(C(F)(F)F)c1 -12.9%
CCC(C)NC(=O)Cn1ncc2c([nH]c3ccc(C)cc32)c1=O (centres undefined) -16.5%
COc1cccc(-c2ccc3c(N)c(C(=O)c4ccc(Cl)cc4)sc3n2)c1 -11.2%
CCc1cccc(NC(=O)Cn2nc(-c3ccc(OC)cc3)ccc2=O)c1 4.89%
CCOc1ccccc1NC(=O)Cn1c(=O)n(Cc2ccccc2)c(=O)c2c(C)c(C)sc21 -18.8%
CCOC(=O)c1ccc(N2C(=O)c3n[nH]c(-c4cccs4)c3C2c2ccc(C(C)(C)C)cc2)cc1 (centres undefined) -8.31%
O=C(Nc1nc2n(n1)C(c1ccccc1)C=C(c1ccccc1)N2)c1ccc(Cl)c([N+](=O)[O-])c1 (centres undefined) -14%
Cc1ccc(NC(=O)c2c(C)oc3ccc(O)c(CN4CCCCCC4)c23)c(C)c1 -29.6%
CCOC(=O)c1[nH]c(C)c(CCC(=O)NCc2ccc(OCC)cc2)c1C -7.5%
CC(C)OCCCNC(=O)c1cc2c(-c3ccc(Cl)cc3)nn(C)c2s1 -29.9%
COc1cc(NC(=O)C2CCCN(S(=O)(=O)c3ccc4c(c3)oc(=O)n4C)C2)c(C(=O)O)cc1OC (centres undefined) -12.2%
CCc1ccc(NC(=O)C(=O)NCCc2csc(-c3ccc(C(F)(F)F)cc3)n2)cc1 7.26%
Cc1cc(C)c(NC(=O)Cn2c(=O)n(Cc3ccc4c(c3)OCO4)c(=O)c3ccc(C(=O)NC4CCCCC4)cc32)c(C)c1 -0.164%
O=C(NCc1ccccc1F)c1ccc(CN2CC(=O)N3CCCCC3C2=O)cc1 (centres undefined) -19.3%
N#C/C(=C\c1ccc(Cl)cc1)c1nc(-c2cc3ccccc3oc2=O)cs1 0.575%
CCOC(=O)c1sc2cccc(F)c2c1S(=O)(=O)N1CCN(c2cccc(Cl)c2)CC1 -7.83%
CCc1ccc(CNC(=O)c2cnc3sc4cc(OC)ccc4n3c2=O)cc1 -2.11%
CCCn1c2ccccc2c2cnn(CC(=O)N3CCC(C)CC3)c(=O)c21 -5.2%
COc1ccc(Nc2ncc3c(n2)CCN(Cc2cc(Br)cs2)C3)c(OC)c1 -16.8%
CC(C)C(=O)c1c(C(C)C)nn2ccccc12 14.3%
COc1ccccc1NC(=O)c1cc2c(=O)oc3ccc(C)cc3c2s1 -4.54%
CCCCOc1ccccc1C(=O)N(Cc1ccc(C)o1)C1CCS(=O)(=O)C1 (centres undefined) -17.8%
Cc1ccc(NC(=O)CSc2nc3c(oc4ccccc43)c(=O)n2-c2ccc(F)cc2)c(C)c1 -26.1%
COCCCNC(=O)CCCCn1c(=O)c2ccccc2n(CC(=O)Nc2ccc(C)cc2C)c1=O -10.7%
Cc1cccn2c(=O)c3cc(C#N)c(=O)n(-c4nnc(SCc5ccccc5F)s4)c3nc12 -9.15%
COCCNC(=O)CSc1nc2cc3c(cc2c(=O)n1CCCCCC(=O)NCc1ccc(OC)cc1)OCO3 -6.87%
COc1ccc(CNC(=O)c2ccc3c(c2)nc2n3CCC(C)C2)c(OC)c1 (centres undefined) 11.6%
CCOc1ccccc1NC(=O)Cn1nnc2sc(-c3ccccc3)cc2c1=O 10.7%
CC(C(=O)NCc1ccccc1F)n1ccc2cc(S(=O)(=O)N3CCCC3)ccc21 (centres undefined) -27.3%
CCOc1ccccc1NC(=O)c1c(NC(=O)c2cccc(C)c2)sc2c1CCCC2 2.38%
CCc1ccccc1NC(=O)Nc1cc(C(=O)NCc2ccc(C)cc2)ccc1N1CCCC1 3.46%
CC1CN(C(=O)Nc2ccc(C(=O)NCc3cccc(F)c3)cc2)c2ccccc2S1 (centres undefined) -19.3%
O=C(Nc1ccc(C(F)(F)F)cc1)C1CCCN(c2cnccn2)C1 (centres undefined) -4.94%
O=C(Nc1ccccc1Cl)N1CCC(CN2CCCCC2)CC1 -10.4%
C[C@H]1[C@H]2CC[C@H]3[C@@H]4CC=C5C[C@@H](N(C)C)CC[C@]5(C)[C@H]4CC[C@]23CN1C -8.22%
COc1ccc(N2CCN(c3oc(/C=C/c4cc(OC)c(OC)c(OC)c4)nc3C#N)CC2)cc1 -8.49%
COc1cc(C(=O)Nc2ccc3oc(-c4ccc(C)c(Br)c4)nc3c2)cc(OC)c1OC 2.2%
Cc1cc(C)cc(Oc2nc3c(c(=O)n(C)c(=O)n3C)n2Cc2ccc(F)cc2)c1 -2.73% [at 11.5 µM]
CCOC(=O)c1ccccc1NC(=O)N(C)CCc1c(C)nn(CC)c1C 43.1%
CCc1nnc(SCC(=O)Nc2ccc(F)cc2F)c2cc3sc(C)cc3n12 8.73%
Cc1cc(OCC(=O)N(Cc2sccc2C)C2CCS(=O)(=O)C2)ccc1Cl (centres undefined) -29%
COc1ccc(Nc2cc(C(=O)NCc3ccccc3OC)c3ccccc3n2)cc1 0.281%
Cc1cc(C)c2c(CC(=O)Nc3c(C(=O)Nc4ccc(Cl)cc4)oc4ccccc34)coc2c1 26.5%
COc1ccc(CNC(=O)CN2C(=O)c3cccnc3Oc3ccc(C)cc32)cc1 6.12%
CCCSCCCNC(=O)c1ccc2nc(Cc3ccccc3)oc2c1 0%
CCc1ccc(CNC(=O)CN2CCSc3ccccc32)cc1 -19%
CCOC(=O)N1CCc2c(sc3c2c(=O)n(CCc2ccccc2)c(=O)n3Cc2c(F)cccc2Cl)C1 -6.17%
O=C(CN1C(=O)COc2ccc(S(=O)(=O)N3CCCCCC3)cc21)NCc1ccc(F)cc1 -14.3%
Cc1cc(C)c2c(CC(=O)N(Cc3ccccc3)C3CCS(=O)(=O)C3)coc2c1 (centres undefined) -26.7%
Cc1cc(C)cc(OCC(=O)Nc2ccc(-c3nc4ccccc4o3)cc2)c1 24.9%
CCC(=O)N1CCc2cc(S(=O)(=O)NC(C(=O)Nc3ccc(C(C)=O)cc3)C(C)C)ccc21 (centres undefined) 7.87%
Cn1c(=O)oc2cc(S(=O)(=O)Nc3ccc(C(=O)O)cc3)ccc21 0.647%
Cc1ccc(OCC(=O)Nc2ccc3nc(SCC(=O)N4CCc5ccccc54)sc3c2)cc1 -9.76%
COc1ccc(NC(=O)c2cccn2-c2nnc(N3CCCCC3)s2)cc1 34.9%
CCOC(=O)C1CCCN(c2nc3c(S(=O)(=O)c4ccc(C)c(C)c4)nnn3c3ccc(Cl)cc23)C1 (centres undefined) -2.36%
CCn1c(=O)c2sccc2n2c(CCC(=O)Nc3cc(C)cc(C)c3)nnc12 -10.4%
COc1ccc(-c2nc(CS(=O)CC(=O)NCc3ccccc3OC)c(C)o2)cc1 (centres undefined) 4.2%
COc1ccc2c(c1)CC(C(=O)NCCCN1CCN(c3ccc(F)cc3)CC1)CO2 (centres undefined) -37.4%
COc1cccc(N2CCN(C(=O)C3CCN(S(=O)(=O)c4ccc5c(c4)oc(=O)n5C)CC3)CC2)c1 -25.1%
COc1cccc(C(=O)Nc2cc3c(cc2C(=O)c2ccc(C)cc2)OCCO3)c1 -6.33%
COC(=O)Cn1c(=O)c2c(nc3n2CCN3c2ccc(F)cc2)n(C)c1=O -11.3%
O=C(NCc1ccccc1Cl)NCc1noc2ccccc12 29.5%
Cc1ccccc1NC(=O)Cn1c(=O)n(CC2CCC(C(=O)NCCc3ccccc3)CC2)c(=O)c2ccccc21 (centres undefined) -6.68%
Cc1ccc(CNS(=O)(=O)c2ccc(-c3cc(C(F)(F)F)on3)s2)cc1 4.73%
Nc1c(C(=O)Nc2ccccc2)nnn1Cc1ccc(F)cc1Cl 60.4%
Cc1ccc(N2C(=O)[C@@H]3CSC(c4ccc(F)cc4)N3C2=O)cc1 (some centres undefined) -33.7%
CCOc1ccccc1C(=O)Nc1nc2c(s1)CC(C)CC2 (centres undefined) 33.8%
Cc1ccc(C(=O)Nc2cc3c(cc2N2CCCC2)n(C)c(=O)c(=O)n3C)cc1 -7.69%
Cc1nn(C(C)(C)C)c(OC(=O)C(C)(C)C)c1Sc1ccccc1 -13.9%
CC(=O)Nc1ccc(NC(=O)Cn2nc(C(=O)Nc3ccc(C)cc3)ccc2=O)cc1 5.58%
CCOc1ccc(-c2cc3c(=O)n(CC(=O)NCc4ccc(Cl)cc4)ccn3n2)cc1 7.93%
CCCOc1ccc(Oc2nc(NCC(C)C)nc(N3CCOCC3)n2)nn1 14.6%
O=C(O)CCn1cnc2onc(-c3cc(F)cc(F)c3)c2c1=O -17.8%
CC(C)(C)NC(=O)[C@H]1CC[C@H]2[C@@H]3CC[C@H]4NC(=O)C=C[C@]4(C)[C@H]3CC[C@]12C -5.5%
COc1cccc(NC(=O)C2CCCN(S(=O)(=O)c3ccc4[nH]c(=O)ccc4c3)C2)c1 (centres undefined) -29.7%
O=C(Nc1ccc(OCc2cc(=O)n3c4c(sc3n2)CCCC4)cc1)c1ccccc1 -13.9%
CC1CCc2nc3ncn(Cc4ccccc4F)c(=O)c3cc2C1 (centres undefined) -0.424%
CCOc1ccc(OCC)c(NS(=O)(=O)c2c(C(=O)N3CCC(C)CC3)c(C)n(C)c2C)c1 -15.9%
COc1ccc(N2CC(NC(=O)c3ccc4c(c3)OCO4)CC2=O)cc1 (centres undefined) -10.6%
COc1ccc(NC(=O)CN(c2ccc(C)cc2)S(=O)(=O)c2cccc3nonc23)cc1OC -3.55%
Cc1ccc(-n2c(SCC(=O)O)nc3sc4c(c3c2=O)CCCC4)cc1 -2.46%
CC(C)NC(=O)C1CCC(Cn2c(=O)c3sccc3n(CC(=O)NCc3ccccc3)c2=O)CC1 (centres undefined) -1.67%
COc1ccc(NC(=O)Cn2cnc3c(oc4ccccc43)c2=O)cc1OC 5.28%
CCOC(=O)c1c(-c2ccccc2)csc1NC(=O)c1cc(-c2ccc(F)cc2)on1 0.177%
O=C(NCc1ccc2c(c1)OCO2)c1ccc2c(c1)N(Cc1ccccc1)C(=O)c1ccccc1S2=O (centres undefined) -6.79%
CC(C)n1cnc(S(=O)(=O)N2CCCC(C(=O)NCc3ccccc3Cl)C2)c1 (centres undefined) -26%
CN(c1ccccc1)S(=O)(=O)c1nnc(NC(=O)c2ccccc2)s1 -7.49%
CCOc1ccc(C(=O)c2c(N)c(-c3nc(-c4ccc5c(c4)OCO5)cs3)c3ccccn23)cc1 -1.48%
